Structures are written as SMILES. Out of some 52,000 compounds screened, about 1,700 (3.3%) were called active. Cut-off read from the data, not from the text of the source: active = survival mostly below about 52% (no sharp cut-off); inactive = mostly above about 56%. The list shows a part of the results.

Results on 91 compounds are retold here after PubChem BioAssay AID463173 (ICCB-Longwood Screening Facility, Harvard Medical School, 2010).

The subject of this test is Wild type. Put plainly: growth inhibition of S. aureus wild type versus tarO mutant, primary screen, teichoic acid synthesis inhibitors, RN4220, OD600 (AID 463173). The settings on record: S. aureus RN4220 wild type/DeltatarO growth, OD600, 18 h, stronger effect = lower value, screened at 18.75 µg/mL (by protocol).
Turning to `NC1CCSc2ccccc21` (stereo unspecified), the survival was inactive: 103%.
Take `Cc1ccc(C(C)C)c(OCC(=O)N2CCC(c3nc4ccccc4o3)CC2)c1`: the survival is inactive: 103%.
For the compound `CCOc1ccccc1C(=O)Nc1ccc2c(c1)N(C)C(=O)c1ccccc1S2`, the survival was inactive: 67%.
For `CNC(=O)C1c2ccccc2Oc2ccccc21`, the survival was inactive: 116%.
Turning to `C/C(CCc1ccc2c(c1)OCO2)=N\N=C1/NC(=O)CC(C(=O)O)S1` (stereo unspecified), the survival was inactive: 106%.
As to `CCn1c(SCCOc2ccccc2F)nc2ccccc21`, the survival is active: -1%.
Under `Cc1nn(-c2ccc(N3CCOCC3)nn2)c(C)c1CCC(=O)NCc1ccc(OC(C)C)cc1` stands inactive: 64%.
Under `Cc1c(C2=CCN(S(=O)(=O)c3ccc(CC(C)C)cc3)CC2)c2ccccc2n1CC(=O)N1CCCC1` stands inactive: 126%; under `c1ccc(Cn2nnc3c(N4CCCC4)ncnc32)cc1`, inactive: 97%.
With `Cc1cccc(CC(C(=O)Nc2ccccc2)c2nn[nH]n2)c1` (stereo unspecified), the survival is inactive: 107%.
Under `CCOc1ccc(NS(=O)(=O)c2ccc3[nH]c4c(c3c2)CCCC4)cc1` stands inactive: 64%.
As to `Cc1nn2c(=O)cc(COC(=O)c3cccc(NC(=O)c4cccs4)c3)nc2s1`, the survival was inactive: 80%.
The result for `Cc1cccc(N(C)S(=O)(=O)c2cc3c(cc2Cl)NC(=O)CO3)c1` reads inactive: 75%; that for `COc1ccc(N(CC(=O)N2CCN(c3cccc(C)c3C)CC2)S(=O)(=O)c2c(C)noc2C)cc1`, inactive: 83%.
Take `COc1ccc(-c2cn3nc(N4CCC(C(=O)Nc5cccc(C)c5C)CC4)sc3n2)cc1`: the survival is inactive: 60%.
With `COc1ccc2nc(N(Cc3cccnc3)C(=O)c3ccc4c(c3)OCCO4)sc2c1`, the survival was inactive: 65%.
With `Cc1ccc(CNS(=O)(=O)c2ccc3c(c2)CCN3S(C)(=O)=O)cc1`, the survival was inactive: 87%.
For `O=C(O)COc1ccccc1/C=N\n1cnnc1`, the survival is inactive: 105%.
With `CCCSc1ncc(Cl)c(C(=O)Nc2sc3c(c2C(=O)NCCOC)CCCC3)n1`, the survival was inactive: 107%.
As for `Cc1c(Cl)cccc1NC(=O)CSc1nc(=O)n(Cc2ccccn2)c2c1CCC2`, the survival is inactive: 119%.
For the compound `CCCCOC(=O)c1ccc(NC(=O)c2cc3c(=O)n4cccc(C)c4nc3n2C)cc1`, the survival is inactive: 85%.
Take `O=C(Nc1ccc(F)cc1F)c1cc(-c2ccccc2O)no1`: the survival is inactive: 89%.
As to `Cc1ccc(NC(=O)Cn2c(=O)n(CCCCC(=O)NCCc3ccccc3)c(=O)c3ccccc32)c(C)c1`, the survival was inactive: 106%.
Under `Cc1nn2c(=O)cc(COC(=O)c3ccc(NC(=O)C4CCCCC4)cc3)nc2s1` stands inactive: 124%; under `COc1cc(NC(=O)Cn2nc(C(F)(F)F)c3c2CCCC3)c(OC)cc1Cl`, inactive: 87%; under `COCCNC(=O)CCCn1c(=O)c2cc(OC)c(OC)cc2n(CC(=O)Nc2ccc(F)cc2)c1=O`, inactive: 87%.
For the compound `O=C(COc1ccccc1Cl)Nc1ccc2oc(-c3ccccc3F)nc2c1`, the survival is inactive: 81%.
Regarding `COc1ccccc1OCC(O)CN` (stereo unspecified), the survival is inactive: 107%.
Regarding `CC1CC(C)CN(c2c3c(nc4cc(-c5ccc(F)cc5)nn24)CCC3)C1` (stereo unspecified), the survival was inactive: 101%.
As for `CNC(=O)C1=C(C)NC(=O)NC1c1cccs1` (stereo unspecified), the survival was inactive: 99%.
The result for `CCOC(=O)C1CCN(CCC(=O)Nc2ccc(Br)c(C)c2)CC1` reads inactive: 69%; that for `O=C(CSc1nc(=O)[nH]c2c1CCCC2)Nc1ccccc1C(F)(F)F`, inactive: 132%; that for `Cc1ccc(NC(=O)C(NS(=O)(=O)c2ccc3c(c2)CCC(=O)N3)c2ccccc2)cc1C` (stereo unspecified), inactive: 95%.
The result for `CCOc1ccc(CNC(=O)c2ccc(-c3nc(CS(=O)(=O)c4ccccc4)c(C)o3)cc2)cc1` reads inactive: 67%; that for `COc1ccc(NC(=O)c2nnn(Cc3nc(-c4cc(Br)ccc4OC)oc3C)c2C)cc1`, inactive: 67%.
Turning to `CCOc1cccc(C2c3c(oc4ccc(F)cc4c3=O)C(=O)N2CCc2ccc(OC)cc2)c1` (stereo unspecified), the survival is inactive: 78%.
Consider `c1cn(CCCNc2ncnc3sc4c(c23)CCCCC4)cn1`, for which the survival is inactive: 109%.
Regarding `COc1ccc(Nc2cc(C(=O)NC3CCCC3)c3ccccc3n2)c(OC)c1`, the survival was inactive: 82%.
Under `CCNC(=O)Cn1c(-c2cccs2)cc2ccccc21` stands inactive: 74%; under `Cc1ccc(CN(C(=O)Nc2cccc(Cl)c2)c2ccccn2)cc1`, inactive: 79%; under `COc1ccc(NC(=O)C2CCN(S(=O)(=O)c3ccc4c(c3)CCCC(=O)N4)CC2)cc1Cl`, inactive: 77%.
`Cc1cc(C)nc(NCC(O)COc2ccccc2C)n1` (stereo unspecified): the survival was inactive: 111%.
With `Cc1oc(C)c2c(=O)cc(-c3ccc4c(c3)OCO4)cc(OC(=O)c3ccccc3Br)c12`, the survival is inactive: 104%.
As to `CCn1ccc2cc(S(=O)(=O)N3CCCN(C(=O)NCC(C)C)CC3)ccc21`, the survival was inactive: 75%.
Consider `COc1cc(OC)c(NC(=O)c2cc(CN3CCOCC3)on2)cc1Cl`, for which the survival was inactive: 71%.
Under `COc1ccc(S(=O)(=O)N2CCN(c3ccccc3OC)CC2)cc1-c1noc(C)n1` stands inactive: 122%; under `Nc1ccc(CNc2ncn[nH]2)cc1`, inactive: 120%.
As to `COc1ccc(Cn2nnnc2C(C(C)C)N2CCc3ccccc32)cc1` (stereo unspecified), the survival is inactive: 111%.
Regarding `Cc1ccc(Cn2c(-c3ccccc3)nc3ccccc32)cc1`, the survival was active: 8%.
Turning to `Cc1ccc(-c2nc3ccccc3n3c(-c4ccccc4)c4c(=O)n(C)c(=O)n(C)c4c23)cc1`, the survival was inactive: 95%.
In the case of `CCOc1ccccc1NC(=O)Cn1ccn(-c2ccccc2)c(=O)c1=O`, the survival was inactive: 82%.
In the case of `COc1ccccc1N1CCN(c2csc3ccc(Cl)cc3c2=O)CC1`, the survival is inactive: 138%.
On to `CCCCNC(=O)c1cc(Sc2ccc(OCC)cc2)nc2ccccc12`, for which the survival was inactive: 66%.
The result for `Cc1ccc(C)c(Cn2c(=O)n(CCCCC(=O)NCc3ccccc3Cl)c(=O)c3ccccc32)c1` reads inactive: 127%; that for `CCn1ccc2cc(S(=O)(=O)N3CCC(C(=O)NCc4cccc(C)c4)CC3)ccc21`, inactive: 53%.
Under `Cc1ccc(-c2c(C(=O)Nc3ccc(F)c(F)c3)oc(=O)c3ccccc23)cc1` stands inactive: 92%.
Consider `O=C(NCCSCc1ccc(Cl)cc1)C1CCN(S(=O)(=O)Cc2ccccc2)CC1`, for which the survival was inactive: 83%.
`CCn1cc(C(=O)NCc2ccc(C)cc2)c(=O)c2cc(S(=O)(=O)N3CCC(C)CC3)ccc21`: the survival was inactive: 128%.
As to `CN(C)c1ccc(CNC(=O)c2cc3cc(S(=O)(=O)N4CCCCC4)ccc3n2C)cc1`, the survival is active: 0%.
For `O=C(CN1C(=O)C2CCCCN2c2ccc(C(=O)N3CCCC3)cc21)NCc1cccc(Cl)c1` (stereo unspecified), the survival is inactive: 54%.
On to `Cc1ccc(Cl)c2sc(NC(=O)CS(=O)(=O)c3ccc(Cl)cc3)nc12`, for which the survival was inactive: 90%.
Take `CCOc1ccc(CNS(=O)(=O)c2c(C(=O)N3CCCCCC3)c(C)n(C)c2C)cc1OC`: the survival was inactive: 68%.
In the case of `Cc1ccc(CNC(=O)Cc2coc3cc(C)cc(C)c23)cc1`, the survival is inactive: 119%.
For `COc1ccc(C=Nc2ccc3[nH]ncc3c2)c(O)c1`, the survival was inactive: 88%.
The result for `Cc1ccc(NC(=O)Nc2nnc(N3CCCC3)s2)c(C)c1` reads inactive: 86%.
As to `CCN(CC)S(=O)(=O)c1ccc2c(c1)c(=O)c(C(=O)NCc1ccccc1)cn2C`, the survival is inactive: 76%.
As for `CCCCN(C)C(=O)C1CCCN(c2ncnc3onc(-c4ccc(F)cc4)c23)C1` (stereo unspecified), the survival was inactive: 73%.
Consider `Cc1cccc(N2CCN(C(=O)CSCc3ccc(F)cc3)CC2)c1C`, for which the survival was inactive: 75%.
With `O=C(Nc1cccc(-n2cnnn2)c1)c1ccccc1`, the survival was inactive: 102%.
The result for `O=C(NCc1ccccc1)c1ccc(NC(=O)c2nsc3ccccc23)cc1` reads inactive: 55%; that for `COc1ccc(CNC(=O)CCC(=O)N2CC3CCCN3c3ccccc32)cc1` (stereo unspecified), inactive: 73%.
The result for `COc1ccccc1CNC(=O)c1ccc(CS(=O)(=O)c2ccccc2C)o1` reads inactive: 73%; that for `CCCNC(=O)c1ccc(-n2c(-c3ccccc3)cc3c2CCCCC3)cc1`, inactive: 116%.
Regarding `CCOc1cccc(CC(=O)Nc2ccc3nc(N4CCCCC4)cc(C)c3c2)c1OCC`, the survival was inactive: 129%.
Consider `CC(=O)N1CCCc2cc(S(=O)(=O)N3CCC(C(=O)NCc4ccc(N(C)C)cc4)CC3)ccc21`, for which the survival is inactive: 66%.
`COc1cc(CN(CC2CCCO2)C(=O)c2ccc(F)cc2)cc(OC)c1OC` (stereo unspecified): the survival was inactive: 86%.
Turning to `CCN1CCN(C(C)C(=O)Nc2ccc3c(c2)OCO3)CC1` (stereo unspecified), the survival is inactive: 107%.
As for `Nn1c(C2CC2)nc2cc(Cl)ccc2c1=O`, the survival was inactive: 108%.
As for `CCC(=O)N1CCc2cc(S(=O)(=O)NCCC(=O)NCc3ccccc3Cl)ccc21`, the survival was inactive: 83%.
Consider `Cc1ccccc1-c1noc(C(C)NC(=O)c2ccco2)n1` (stereo unspecified), for which the survival was inactive: 85%.
Regarding `O=C(NC1C2CC3CC(C2)CC1C3)c1cc2ccccc2o1` (stereo unspecified), the survival was inactive: 100%.
With `CSc1cccc(N=C2C(=O)Nc3ccccc32)c1`, the survival is inactive: 108%.
Consider `COc1ccccc1CNC(=O)C(CC(C)C)NS(=O)(=O)c1ccc2c(c1)oc(=O)n2C` (stereo unspecified), for which the survival is inactive: 90%.
Take `Cn1c(=NC(=O)c2ccc3c(c2)OCCO3)sc2cc(S(C)(=O)=O)ccc21`: the survival was inactive: 71%.
As to `COC(=O)c1ccc(-n2nnc(-c3nc(-c4ccc5c(c4)OCO5)no3)c2C)cc1`, the survival is inactive: 105%.
As to `CC(C)c1nc2ccc(C(=O)NCCCN3CCN(c4ccccc4F)CC3)cc2o1`, the survival was inactive: 78%.
The result for `CCN(C(=O)CN(C)S(=O)(=O)c1ccc2c(c1)c(=O)n(C)c(=O)n2C)c1ccc(OC)cc1` reads inactive: 77%; that for `O=C1CC(C(=O)NCc2ccccc2)N=C(N2CCCCC2)N1` (stereo unspecified), inactive: 98%; that for `Cc1cc(Br)ccc1NC(=O)CCS(=O)(=O)c1cccc2nsnc12`, inactive: 124%.
In the case of `CC(=O)NCCNc1nc2c(S(=O)(=O)c3ccc(C)c(C)c3)nnn2c2ccc(Cl)cc12`, the survival was inactive: 80%.
Under `CCOC(=O)c1ccc(NC(=O)C2CCCN(c3ccc(Sc4ccc(C)cc4)nn3)C2)cc1` (stereo unspecified) stands inactive: 80%.
